# Laboratory results as given in PubChem BioAssay AID686979 (National Center for Advancing Translational Sciences (NCATS), 2013).
# Values joined by “and” are separate entries in the source; they are usually repeats but may differ in a detail not shown here. Identical values can stand only once. About 50,000 (12%) of roughly 420,000 compounds were called active. The shares of active, inactive and inconclusive entries below differ from those in the screen. The call rests on the fitted dose curve; in most records, active means well fitted inhibition curve with a large enough effect; inconclusive means small, poorly fitted or top-dose-only effect; inactive means flat fitted curve, though single readings scatter. Potencies beside an inconclusive call are fits to weak or partial responses and may not hold up.
# Assay: qHTS for Inhibitors of human tyrosyl-DNA phosphodiesterase 1 (TDP1): qHTS in cells in presence of CPT; further: nearly all actives have a fitted effect of over 55% in size
# Details: chicken DT40 Tdp1-/-;hTDP1 cells + 20 nM CPT, ATP luminescence, 48 h; activity change, negative = growth inhibition: at 46.2 µM (top of the series) unless noted
# Summary of the method: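 Cell growth measured by CellTiter-Glo luminescence after a minimum 48 h, 37 C compound exposure with 20 nM CPT in Tdp1-knockout DT40 cells stably expressing hTDP1, seeded 400/well; qHTS titration format.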
# On the % scale 0 is the no-effect control and ±100 the full control effect; potency means the concentration at half of the fitted maximal effect; tags describe the fitted curve by direction and shape.
SMILES,Potency,"activity change, negative = growth inhibition"
COc1ccccc1CNc1nc(-c2ccco2)nn1S(=O)(=O)c1ccc(C)cc1,"inconclusive: 29.1 µM [inhibitor, single point]",–
CNC(=O)c1[nH]cnc1C(=O)Nc1ccc(C)cc1,–,inactive: -21.5%
C[C@@H]1CCCCO[C@H](CN(C)C(=O)Cc2ccccc2)[C@H](C)CN([C@@H](C)CO)C(=O)c2cc(NC(=O)Nc3ccc(F)cc3)ccc2O1,active: 23.1 µM,–
COc1ccc(C2C(C#N)=C(N)Nc3onc(C(C)(C)C)c32)c(OC)c1 (stereo not drawn),"inconclusive: 25.9 µM [inhibitor, single point]",–
COC(=O)c1sc2ccccc2c1-n1cccc1C(=O)C(=O)Nc1ccccc1,"inconclusive: 29.1 µM [inhibitor, single point]",–
O=C(/C=N/O)Nc1ccc2sc3ccccc3c2c1,–,inactive: 6.36%
CCOc1ccc(/C=C2/Sc3ccc(C(=O)NCC4CCCO4)cc3N(C)C2=O)cc1OC (stereo not drawn),"inconclusive: 29.1 µM [inhibitor, single point]",–
CC(=O)Nc1ccc2nc(SCc3ccccc3)sc2c1,–,inactive: -26.7%
CC(=O)NCCC(=O)Nc1nc2c(ccc3ccccc32)s1,–,inactive: 5.07%
NC(=O)c1ccsc1NC(=O)CSc1nc2ccccc2c(=O)n1CCCO,–,inconclusive: -38.9% [inhibitor]
CCCCCCOc1ccccc1C(N)=O,"inconclusive: 16.4 µM [inhibitor, single point]",–
O=C(N/N=C/c1cccs1)c1cc(-c2cccc3ccccc23)n[nH]1,"inconclusive: 25.9 µM [inhibitor, single point]",–
CN(C(=O)c1cc2c(cc1Br)OCO2)c1cccc2ccccc12,"inconclusive: 25.9 µM [inhibitor, single point]",–
CCOC(=O)c1c(NC(=O)C2CC=CCC2C(=O)O)sc(C)c1CC (stereo not drawn),"inconclusive: 29.1 µM [inhibitor, single point]",–
CCOC(=O)N1CCC(NC(=O)c2cnn(-c3cccc(C)c3)c2C2CCN(C(=O)OC(C)(C)C)CC2)CC1,active: 23.1 µM,–
CC(C)=CCCC(C)=CCN1C(=O)CN(C)C1=O,"inconclusive: 10.3 µM [inhibitor, single point]",–
O=C(N/C(=C\c1ccc([N+](=O)[O-])cc1)C(=O)N1CCCCC1)c1ccccc1Br,–,inactive: -20.5%
C[C@@H](C(=O)Nc1ccc2ccccc2c1)[C@H]1C[C@]1(C)[C@H](NS(=O)(=O)c1ccccc1)c1ccccc1,"inconclusive: 20.6 µM [inhibitor, single point]",–
CCn1c(=O)c2sccc2n2c(CCCC(=O)N3CCN(c4ccccc4OC)CC3)nnc12,"inconclusive: 18.4 µM [inhibitor, single point]",–
CCCCn1c(N)c(N(CCOC)C(=O)c2cc(S(=O)(=O)N3CCCCC3)ccc2C)c(=O)[nH]c1=O,–,inactive: -25.7%
O=C(N/N=C/C(Br)=C/c1ccccc1)c1ccncc1,active: 1.64 µM,–
O=C(Nc1ccc(F)cc1)C1CCN(c2ncnc3c2nc2n3CCCCC2)CC1,"inconclusive: 25.9 µM [inhibitor, single point]",–
O=Cc1cn(CCOc2ccc(F)cc2)c2ccccc12,"inconclusive: 20.6 µM [inhibitor, single point]",–

SMILES,Potency,"activity change, negative = growth inhibition"
NC(=O)[C@H]1CC2(CC(c3cccc(NC(=O)CC(c4ccccc4)c4ccccc4)c3)=NO2)CN1C(=O)CC(c1ccccc1)c1ccccc1 (stereo partly drawn),"inconclusive: 25.9 µM [inhibitor, single point]",–
O=C(NCC(=O)N1CCN(C(c2ccccc2)c2ccccc2)CC1)c1ccc(Br)o1,"inconclusive: 25.9 µM [inhibitor, single point]",–
COc1ccccc1N(CN1CCCC1=O)C(=O)c1c(F)cccc1Cl,active: 20.6 µM,–
CCCC(c1nnnn1CS(=O)(=O)c1ccc(C)cc1)N1CCN(c2ccc(F)cc2)CC1 (stereo not drawn),"inconclusive: 18.4 µM [inhibitor, single point]",–
O=C(/C=C/c1cccc(C(F)(F)F)c1)OCC(=O)N1CCN(c2ccccc2)CC1,"inconclusive: 13 µM [inhibitor, partial curve]",–
O=C(c1ccc(F)cc1)N1c2ncnn2C2(CCCCC2)[C@@H]2CCCC[C@@H]21,"inconclusive: 16.4 µM [inhibitor, single point]",–
CC1(C)Cc2c(c(N3CCOCC3)nc3sc(C(=O)N4CCCCC4)c(N)c23)CO1,–,inconclusive: -33.3% [inhibitor]
NC(=O)c1cccc(Nc2nc(C(N)Cc3ccc(C(F)(F)F)cc3)cs2)n1 (stereo not drawn),active: 6.51 µM,–
CC1=Nc2ccccc2/C1=C\c1nc(-c2ccccc2)oc1O,–,inactive: 4.55%
CCOC(=O)c1ccc(NC(=O)c2ccc3c(c2)CCN3S(=O)(=O)c2ccc(Cl)cc2)cc1,active: 7.31 µM,–
COc1ccc(CNC(=O)c2cc(Nc3ccc(OC)cc3OC)nc3ccccc23)cc1,"inconclusive: 29.1 µM [inhibitor, single point]",–
COc1ccccc1NC(=S)NNC(=O)c1ccccc1Br,active: 16.4 µM,–
COc1ccc(CCNC(=O)CSc2ccccn2)cc1OC,–,inactive: 4.84%
O=C(NC1CCCc2c1cnn2-c1ccccc1F)c1ccccn1 (stereo not drawn),"inconclusive: 14.6 µM [inhibitor, single point]",–
NC(=O)CC1C(=O)N(c2ccccc2)C(=S)N1NC(=O)c1ccccc1 (stereo not drawn),–,inactive: 6.71%
CCCCCN(C(=O)CCC(=O)OCC(=O)N1CCC(C)CC1)c1c(N)n(CCCC)c(=O)[nH]c1=O,–,inactive: -9.53%
CCOc1ccc(/C=C/C(=O)OCC(=O)c2ccccc2OC)cc1OC,"inconclusive: 14.6 µM [inhibitor, partial curve]",–
COc1cccc(C2=NN(C(=O)c3ccc(C)o3)C(O)(C(F)(F)F)C2)c1 (stereo not drawn),"inconclusive: 29.1 µM [inhibitor, single point]",–
Cc1cccc(NS(=O)(=O)c2nnc(NC(=O)C3CCCCC3)s2)c1,"inconclusive: 29.1 µM [inhibitor, single point] and inconclusive: 18.4 µM [inhibitor, partial curve, poor fit]",–
Cc1ccc(N2CCN(C(=O)C(=O)c3cccc([N+](=O)[O-])c3)CC2)cc1,"inconclusive: 29.1 µM [inhibitor, single point]",–
COc1cccc(CN2CCN(C(=S)NCc3ccc(Cl)cc3)CC2)c1,"inconclusive: 29.1 µM [inhibitor, single point]",–
O=C(CCCN1C(=O)/C(=C\c2cccc(Br)c2)SC1=S)Nc1cccnc1,"inconclusive: 29.1 µM [inhibitor, single point]",–
CC(CNC(=O)c1ccc(Cn2c(SCc3ccccc3)nc3cccnc32)cc1)c1ccccc1 (stereo not drawn),"inconclusive: 20.6 µM [inhibitor, single point]",–

SMILES,Potency,"activity change, negative = growth inhibition"
Cc1ccc(NC(=O)Nc2cccnc2)cc1Cl,"inconclusive: 16.4 µM [inhibitor, single point]",–
Cc1c(C(=O)N2CCc3ccccc3C2)oc2ccccc12,"inconclusive: 23.1 µM [inhibitor, single point]",–
Cc1ccc(-n2nc(CO)c(C(=O)NCCO)n2)cc1,–,inactive: 4.19%
CC(=O)Nc1cc(-c2ccccc2N(C)C)cn2c(-c3ccc(F)c(Cl)c3)cnc12,"inconclusive: 29.1 µM [inhibitor, single point]",–
Cc1ccc(SCCNC(=O)CN(c2ccc3c(c2)OCO3)S(C)(=O)=O)cc1,"inconclusive: 23.1 µM [inhibitor, partial curve]",–
NC(N)=N/N=C/c1ccc(OCc2ccccc2Cl)cc1,active: 14.6 µM,–
Cc1ccc(C)c(CN2C(=O)c3ccccc3Sc3ccc(C(=O)NCCCOC(C)C)cc32)c1,"inconclusive: 29.1 µM [inhibitor, single point]",–
N#CC[C@H](Cc1ccccc1)N1CCN(Cc2ccccc2)CCC1=O,"inconclusive: 35.5 µM [inhibitor, single point]",–
Cc1c(N)c(C(C)(C)C)cc(C(C)(C)C)c1[N+](=O)[O-],"inconclusive: 23.1 µM [inhibitor, partial curve]",–
COc1ccc2oc(=O)cc(CN3CCN(C(=O)c4ccccc4)CC3)c2c1,"inconclusive: 29.1 µM [inhibitor, single point]",–
COc1cc(CNc2ccc(N3CCOCC3)cc2)cc(Br)c1OC,"inconclusive: 29.1 µM [inhibitor, single point]",–
COc1cc(NC(=O)c2cc3ccccc3cc2OC)ccc1NC(=O)c1cccs1,active: 23.1 µM,–
CN(CCO)c1ccc2c(c1)OC[C@H](Cc1ccccc1)NS2(=O)=O,–,inactive: 6.57%
CCOc1ccc(NC(=O)c2oc3ccccc3c2NC(=O)Cc2ccc(OC)c(OC)c2)cc1,"inconclusive: 29.1 µM [inhibitor, single point]",–
CCOC(=O)C1CCN(C(=O)c2cc3c(s2)-c2ccccc2OC3)CC1,active: 14.6 µM,–
Cn1c(N)c(C(=O)COC(=O)COc2ccc(Br)cc2)c(=O)n(C)c1=O,–,inactive: 10.1%
CC(C)c1nn2c(=O)cc(COC(=O)c3ccc(NC(=O)c4ccccc4Cl)cc3)nc2s1,"inconclusive: 29.1 µM [inhibitor, single point]",–
COc1ccccc1-c1nccc(NCc2cnc(C)cn2)n1,–,inactive: 2.87%
COC(=O)c1ccccc1OCCOCCOc1cccc2ccc(C)nc12,"inconclusive: 29.1 µM [inhibitor, single point]",–
CCCC(=O)NC(c1ccc(N(C)C)cc1)c1c(O)ccc2ccccc12 (stereo not drawn),–,inactive: 7.36%
Cc1ccc(-c2cc(C(=O)Nc3ccc(S(=O)(=O)Nc4cc(C)on4)cc3)c3ccccc3n2)c(C)c1,–,inactive: -2.09%
N#C/C(=C\c1ccc(OC(=O)c2ccc(Br)s2)cc1)c1nc2ccccc2[nH]1,"inconclusive: 3.66 µM [inhibitor, full curve]",–
